# Source: ChEMBL document CHEMBL4888484, “Replenishing the malaria drug discovery pipeline: Screening and hit evaluation of the MMV Hit Generation Library 1 (HGL1) against asexual blood stage Plasmodium falciparum ,using a nano luciferase reporter read-out” (2022)
# The whole screen tested about 150,000 compounds, of which about 540 (0.36%) showed an effect of 50% or more. Some of the results follow.
# System: Plasmodium falciparum
# Assay: Primary screen in NF54 nanoGlo assay, in single point, at 2uM, 72h; a lower Z score goes with more inhibition
# Assay type: functional, Erythrocyte
# Settings: timepoint 72 hour
Structure (SMILES),% Inhibition [%],Z score
CC(=O)c1cc(C(=O)N2C(C)CN(C(=O)C(C)(C)C)CC2C)n(C)c1 (centres undefined),-25,2.32
COc1cccc(NC(=O)Cn2cc(-c3noc(-c4ccncc4)n3)nc2C)c1,-9,1.2
Cc1nc(-c2cc(S(=O)(=O)N(C)Cc3ccco3)c(C)n2C)sc1C(=O)N1CCCCC1,5,-0.73
O=C(CN1C[C@H]2CC[C@H]1C2)N1CCN(C(=O)c2ccccc2)CC1,17,-2.13
CCC[C@H](NC(=O)Cc1cc(C)no1)c1cccs1,16,-2.05
COCCN1C(=O)[C@@H]2CC[C@H]1CN(C(=O)c1[nH]c3ccc(C)cc3c1C)C2,-12,1.57
N#Cc1cccc(CN2Cc3nc[nH]c3C[C@H]2C(=O)NCc2ccco2)c1,-5,0.75
CC(C)(C#Cc1ccc(Br)cc1)OC(=O)Nc1cccc2ccccc12,-18,2.36
CC(C)(F)C(=O)N[C@H](Cc1ccccc1)C(=O)Nc1ccccc1,-7,0.79
Cc1nccn1CCCn1ncn2cccc2c1=O,-20,2.32
Cc1ccc(F)cc1C(=O)N1C[C@@H]2[C@@H](CN(C)C)[C@@H]2C1,-3,0.35
CN(C(=O)C1CC1c1ccccc1C(F)(F)F)C1(C#N)CCC1 (centres undefined),-7,1.28
C=C[C@H]1OCC[C@@H]1CNC(=O)NCc1ccc2occc2c1,-10,1.88
Cc1ccsc1CN(Cc1cccnc1)CC(C)C,-9,0.87
Cc1cc(NC(=O)N[C@H]2CC[C@@H](C(=O)O)C2)n(-c2ccc(C(F)(F)F)cn2)n1,-12,1.27
CN(C)CCN(C[C@H]1CCCO1)C(=O)c1ccncc1,-7,1.08
COc1ccc(-c2nc3c(cnn3C3CCCC3)[nH]2)c(F)c1F,-3,0.43
CCNC(=O)C(=O)NC[C@](O)(c1ccoc1)c1ccco1,-7,1.06
N#C[C@@H]1CN(C(=O)c2ccc(O)c(Cl)c2)CCN1C1CC1,-8,0.95
Cc1ccc(Cl)cc1CN=C(N)N(C)C,-2,0.21
Cc1[nH]c2ccc(CNc3nc(Cc4ccc(Cl)cc4Cl)nc4c3nnn4C)cc2c1C,-7,0.87

Structure (SMILES),% Inhibition [%],Z score
O=C1CCCN1Cc1cccc(-c2nc(-c3ccsc3)no2)c1,-6,1.1
CCN1C[C@]2(CCCN(C(=O)c3ccc4cccnc4c3O)C2)CCC1=O,2,-0.49
COc1ccc2cc([C@H](C(=O)O)N(C)Cc3ccon3)ccc2c1,3,-0.46
C[C@H]1CN(Cc2cnn(CC(F)F)c2)c2cccc(F)c2O1,-9,1.42
O=C(c1ccncc1)N1N=C2CCCCCC2C1(O)C(F)(F)F (centres undefined),-27,2.86
Cc1ccc2oc(N3C[C@@H]4OC(=O)N(Cc5ccccn5)[C@@H]4C3)nc2c1,-16,2.18
CC(C)(C)NC(=O)[C@@H]1CC[C@](C)(C(=O)O)C1(C)C,0,0.02
CCC(=O)N[C@@H]1c2ccccc2C2(CCN(C(=O)c3ccc(C)c(C)c3)CC2)[C@H]1OCc1cccnc1,14,-1.9
CCn1c(CN2C[C@H]3CC[C@@H](C2)[C@H]3O)nc2ccccc21,-3,0.34
CCNC(=O)NCC[C@H]1CN(C2Cc3ccccc3C2)CCO1,15,-2
NC(=O)Cn1ccnc1C1CCN(C(=O)c2cc3ccccc3s2)CC1,-12,2.14
COc1ccc(-c2cnnc(N3CC[C@@H]4CCCC[C@H]4C3)n2)cc1F,-15,1.73
CCCc1cc(C(=O)N2C[C@@H](CN3CCCN(C)CC3)[C@@H](CO)C2)cs1,2,-0.22
COc1ccc(C(=O)Nc2ccc(N3CCN(C(=O)c4cccc(Br)c4)CC3)nc2)c(OC)c1,-4,0.77
CCCCOc1c(Cl)cc(CNCCO)cc1OC,5,-0.88
CCNC(=O)c1cc2n(n1)C[C@@H](c1ccc(Br)cc1)OC2,-7,1.13
CC1CCCCN1C(=O)c1c(NC(=O)c2ccccc2F)sc2c1CCC(C(C)(C)C)C2 (centres undefined),-3,0.59
O=C(NCCc1cccs1)c1ccc2c3c(cccc13)CC2,-14,1.96
O=C(Nc1ccccc1O)[C@H]1CC(=O)N(c2[nH]nc3cc(Br)ccc23)C1,-8,0.86
CC(NC(=O)c1ccc2c(c1)OCO2)C1CCCO1 (centres undefined),-7,1.26
C[C@@H](c1cccs1)S(=O)(=O)Cc1cn2ccccc2n1,-8,1.18
